This passage reports binding results from paper PMC6323126.

Protein sequences, listed by entry. Tags and fused reporters are not part of them. Lines headed by an entry give the natural chain unless they say otherwise; changes in a name come on top. Chains listed by the source or under a name are the forms on record and can include a tag or linker. Residues count along the entry.
UniProt Q9P289: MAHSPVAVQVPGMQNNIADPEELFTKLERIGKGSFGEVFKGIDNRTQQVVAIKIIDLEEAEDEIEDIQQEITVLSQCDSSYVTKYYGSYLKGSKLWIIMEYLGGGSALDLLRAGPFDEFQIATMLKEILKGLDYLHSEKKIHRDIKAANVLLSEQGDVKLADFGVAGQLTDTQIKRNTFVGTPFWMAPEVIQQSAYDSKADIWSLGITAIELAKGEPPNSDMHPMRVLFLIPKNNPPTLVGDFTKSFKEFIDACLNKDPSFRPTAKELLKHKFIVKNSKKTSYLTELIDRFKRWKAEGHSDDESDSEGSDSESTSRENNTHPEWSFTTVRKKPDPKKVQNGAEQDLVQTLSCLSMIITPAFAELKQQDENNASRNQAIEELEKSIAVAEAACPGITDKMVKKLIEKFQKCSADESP
UniProt Q5VSL9: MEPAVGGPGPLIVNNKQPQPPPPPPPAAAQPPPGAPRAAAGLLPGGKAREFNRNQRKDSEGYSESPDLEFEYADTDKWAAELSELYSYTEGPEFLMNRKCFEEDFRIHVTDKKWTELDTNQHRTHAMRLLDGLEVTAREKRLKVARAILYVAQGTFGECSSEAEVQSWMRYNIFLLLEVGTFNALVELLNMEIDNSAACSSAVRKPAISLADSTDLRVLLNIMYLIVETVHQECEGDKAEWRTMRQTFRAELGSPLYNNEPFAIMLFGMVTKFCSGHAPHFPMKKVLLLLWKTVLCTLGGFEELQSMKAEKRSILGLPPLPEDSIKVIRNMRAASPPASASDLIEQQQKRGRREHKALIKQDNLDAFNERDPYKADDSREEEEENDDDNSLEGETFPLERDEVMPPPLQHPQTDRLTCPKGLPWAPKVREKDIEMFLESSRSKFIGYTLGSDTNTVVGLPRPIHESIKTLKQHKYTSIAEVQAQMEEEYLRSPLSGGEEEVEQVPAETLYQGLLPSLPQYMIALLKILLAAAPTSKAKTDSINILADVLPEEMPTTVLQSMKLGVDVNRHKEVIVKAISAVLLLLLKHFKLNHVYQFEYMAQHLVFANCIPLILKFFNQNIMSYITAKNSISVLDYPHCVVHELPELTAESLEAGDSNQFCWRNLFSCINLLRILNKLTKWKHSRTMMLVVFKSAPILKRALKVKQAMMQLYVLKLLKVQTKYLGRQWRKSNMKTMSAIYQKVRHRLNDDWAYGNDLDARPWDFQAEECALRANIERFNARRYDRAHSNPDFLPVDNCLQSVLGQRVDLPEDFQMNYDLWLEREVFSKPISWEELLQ
STRIP1 C-terminal tail region containing residues 721–837: residues 721-837 of Q5VSL9
HA-tagged STRIP1 Δ421–744 (Q5VSL9, form named): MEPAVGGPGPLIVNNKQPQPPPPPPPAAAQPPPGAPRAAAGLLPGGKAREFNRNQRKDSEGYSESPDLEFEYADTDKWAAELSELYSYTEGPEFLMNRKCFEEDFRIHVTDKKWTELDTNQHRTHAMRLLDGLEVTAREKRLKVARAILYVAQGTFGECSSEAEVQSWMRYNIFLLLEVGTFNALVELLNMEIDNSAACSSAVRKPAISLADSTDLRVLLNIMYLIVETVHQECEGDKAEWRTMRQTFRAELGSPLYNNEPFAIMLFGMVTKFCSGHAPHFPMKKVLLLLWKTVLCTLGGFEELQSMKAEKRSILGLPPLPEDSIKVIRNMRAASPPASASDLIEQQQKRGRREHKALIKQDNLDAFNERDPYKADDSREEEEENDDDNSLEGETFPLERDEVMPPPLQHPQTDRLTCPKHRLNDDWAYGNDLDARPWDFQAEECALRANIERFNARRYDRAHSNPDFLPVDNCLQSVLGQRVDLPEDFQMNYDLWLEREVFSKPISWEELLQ

Substitutions are numbered along the chain they refer to. Results are given in words; binding and its absence hold for the method and conditions named. For some assays here: In cells and extracts the contact can be indirect. Some binding calls cover weakened binding; strength is not graded here. For some assays here: Where a sequence is shown, tags or fusion partners need not be part of it.

Assay [1] deals with T1, MST2 (recombinant, wildtype) (human) (UniProt Q13188).
T1 sequence: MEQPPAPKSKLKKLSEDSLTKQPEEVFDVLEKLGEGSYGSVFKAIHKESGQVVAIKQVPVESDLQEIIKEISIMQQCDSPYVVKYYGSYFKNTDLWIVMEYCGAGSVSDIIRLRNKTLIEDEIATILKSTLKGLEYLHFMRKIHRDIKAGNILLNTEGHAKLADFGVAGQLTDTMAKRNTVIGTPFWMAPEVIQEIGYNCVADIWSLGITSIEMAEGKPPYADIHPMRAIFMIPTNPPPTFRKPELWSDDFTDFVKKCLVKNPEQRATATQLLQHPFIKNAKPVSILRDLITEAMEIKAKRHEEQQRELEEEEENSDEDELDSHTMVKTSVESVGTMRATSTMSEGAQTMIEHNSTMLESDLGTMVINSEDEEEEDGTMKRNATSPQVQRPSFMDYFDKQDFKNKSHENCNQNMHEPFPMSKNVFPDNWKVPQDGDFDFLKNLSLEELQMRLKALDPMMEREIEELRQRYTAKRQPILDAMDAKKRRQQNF
Kind of assay: pull-down; MBP pulldown of Flag-STRIP1 fragments made in an in vitro cell-free system with the MST kinase; immunoblot; only the target purified.

Assay [2] has as its target MST4 (recombinant) (human) (UniProt Q9P289). The assay is described as above.
The target in assay [3] is T2, Flag-tagged MST2 K56R (in cells) (human) (UniProt Q13188).
T2 sequence: T1 sequence with K56R
Kind of assay: co-IP; HEK293FT cells transfected with tagged plasmids, lysed 24 h later in RIPA buffer; immunoprecipitation with indicated antibodies and Protein A/G beads; immunoblot.

The target in assay [4] is T3, Flag-tagged MST2 (wildtype, in cells) (human) (UniProt Q13188).
T3 sequence: T1 sequence
The description is as above.

Assay [5] addresses T4, Flag-tagged STRN3 Δ64–145 (human) (UniProt Q13033).
T4 sequence: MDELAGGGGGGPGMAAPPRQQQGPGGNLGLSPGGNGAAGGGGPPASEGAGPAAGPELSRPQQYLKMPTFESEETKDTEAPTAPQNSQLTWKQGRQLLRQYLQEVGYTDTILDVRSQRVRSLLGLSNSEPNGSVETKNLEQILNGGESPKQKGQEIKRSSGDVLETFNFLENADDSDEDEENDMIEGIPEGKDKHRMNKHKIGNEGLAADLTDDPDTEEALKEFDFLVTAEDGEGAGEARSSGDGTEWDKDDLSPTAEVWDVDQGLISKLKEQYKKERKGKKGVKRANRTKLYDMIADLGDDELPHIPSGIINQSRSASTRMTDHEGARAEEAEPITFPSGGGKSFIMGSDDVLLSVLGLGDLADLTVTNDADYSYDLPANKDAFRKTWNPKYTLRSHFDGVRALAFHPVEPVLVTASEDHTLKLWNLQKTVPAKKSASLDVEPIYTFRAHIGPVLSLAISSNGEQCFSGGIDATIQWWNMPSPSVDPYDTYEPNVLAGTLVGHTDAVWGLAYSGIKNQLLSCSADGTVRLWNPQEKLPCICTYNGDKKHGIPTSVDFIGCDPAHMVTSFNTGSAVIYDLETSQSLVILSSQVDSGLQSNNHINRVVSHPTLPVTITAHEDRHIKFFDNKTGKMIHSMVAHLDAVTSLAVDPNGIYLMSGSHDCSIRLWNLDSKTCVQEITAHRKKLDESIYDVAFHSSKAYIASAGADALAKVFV
Described as above.

Assay [6] concerns the target T5, Flag-tagged STRN3 (wildtype, in cells) (human) (UniProt Q13033).
T5 sequence: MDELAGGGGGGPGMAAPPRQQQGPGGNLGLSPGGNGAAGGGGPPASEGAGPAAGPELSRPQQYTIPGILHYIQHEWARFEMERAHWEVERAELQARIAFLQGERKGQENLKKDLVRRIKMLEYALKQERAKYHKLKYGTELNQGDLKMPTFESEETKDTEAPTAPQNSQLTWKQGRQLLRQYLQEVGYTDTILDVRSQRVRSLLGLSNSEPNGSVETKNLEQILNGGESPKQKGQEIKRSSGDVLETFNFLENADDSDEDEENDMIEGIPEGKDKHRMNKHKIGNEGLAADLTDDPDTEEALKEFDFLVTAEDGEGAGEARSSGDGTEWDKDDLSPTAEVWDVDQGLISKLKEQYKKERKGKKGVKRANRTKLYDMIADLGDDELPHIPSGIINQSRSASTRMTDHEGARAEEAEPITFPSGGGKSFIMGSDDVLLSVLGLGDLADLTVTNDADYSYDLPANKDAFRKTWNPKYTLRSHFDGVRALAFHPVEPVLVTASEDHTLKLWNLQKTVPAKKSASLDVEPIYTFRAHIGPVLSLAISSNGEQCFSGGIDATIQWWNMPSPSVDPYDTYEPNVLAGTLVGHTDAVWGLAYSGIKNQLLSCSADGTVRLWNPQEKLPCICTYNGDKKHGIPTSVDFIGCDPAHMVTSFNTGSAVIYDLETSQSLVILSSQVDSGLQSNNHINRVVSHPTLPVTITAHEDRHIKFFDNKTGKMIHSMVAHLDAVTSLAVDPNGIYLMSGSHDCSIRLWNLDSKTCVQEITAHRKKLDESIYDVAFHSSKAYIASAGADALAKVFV
The description is as above.

In assay [7] the target is T6, STRN3 (endogenous) (human (endogenous in HEK293FT)) (UniProt Q13033).
T6 sequence: T5 sequence
Kind of assay: co-IP; endogenous proteins, HEK293FT cells at high (80%) and low (10%) cell density; immunoprecipitation of STRN3 or MST1; immunoblot.

The target of assay [8] is STRIP1 C-terminal tail region containing residues 721–837 (UniProt Q5VSL9). Nature of the assay: pull-down; pulldown with purified recombinant proteins shown in supplementary figures; whether GST or MBP and who carried the tag not told; both purified.
Assay [9] concerns the target T7, STRN3 coiled-coil domain (CC, amino acid residues 64–145) (human) (UniProt Q13033).
T7 sequence: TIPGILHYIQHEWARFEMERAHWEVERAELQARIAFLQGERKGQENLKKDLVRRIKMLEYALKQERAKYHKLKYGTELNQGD
Described as above.

The target in assay [10] is T8, MST1 (endogenous) (human (endogenous in HEK293FT)) (UniProt Q13043).
T8 sequence: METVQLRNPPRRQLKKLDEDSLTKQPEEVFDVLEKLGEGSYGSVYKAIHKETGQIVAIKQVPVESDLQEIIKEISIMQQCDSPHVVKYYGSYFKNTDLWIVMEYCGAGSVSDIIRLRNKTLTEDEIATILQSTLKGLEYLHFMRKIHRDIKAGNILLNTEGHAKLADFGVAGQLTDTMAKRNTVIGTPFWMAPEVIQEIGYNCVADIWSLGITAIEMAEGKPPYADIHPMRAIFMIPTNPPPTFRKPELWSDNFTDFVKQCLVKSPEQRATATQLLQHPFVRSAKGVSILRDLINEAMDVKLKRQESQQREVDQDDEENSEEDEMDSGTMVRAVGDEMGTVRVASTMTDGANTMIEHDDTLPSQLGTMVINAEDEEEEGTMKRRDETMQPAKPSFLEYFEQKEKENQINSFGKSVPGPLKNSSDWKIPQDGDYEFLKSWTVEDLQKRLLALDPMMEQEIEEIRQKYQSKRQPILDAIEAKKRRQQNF
Kind of assay: co-IP; endogenous proteins, HEK293FT cells at high (80%) and low (10%) cell density; immunoprecipitation of STRN3 or MST1; immunoblot.

With “Flag-STRIP1 C-terminal region (residues 421–837), cell-free (from UniProt Q5VSL9 421-837) (domain or fragment)”, the binding result in [1] and in assay [2] was “binds” each time.

Regarding “Flag-STRIP1 N-terminal domain (NTD, residues 1–420), cell-free (from UniProt Q5VSL9 1-420) (domain or fragment)”, the binding result in assay [1] and in assay [2] was “no binding” each time.

For the substance “Flag-STRIP1 residues 421–744 (kinase-binding domain, KBD), cell-free (from UniProt Q5VSL9 421-744) (domain or fragment)”, the binding entry in assay [1] is “binds”.

In the case of “HA-tagged STRIP1 (wildtype, in cells) (from UniProt Q5VSL9 1-837)”, the binding entry in [3] was “no binding”; in assay [4] it was “binds”; in [5], “no binding”; in assay [6], “binds”.

With “HA-tagged STRIP1 Δ421–744 (from UniProt Q5VSL9 1-837)”, the binding entry in assay [4] is on record as “no binding”.

With “HA-tagged STRIP1 Δ796–837 (from UniProt Q5VSL9 1-837)”, the binding result in assay [6] was “no binding”.

“MST4 (endogenous) (from UniProt Q9P289 1-416) (enzyme)”: the binding result in [7] was “binds”.

“MST4 (recombinant) (from UniProt Q9P289 1-416) (enzyme)”: the binding entry in [8] is “no binding”.

“N-terminal domain of STRIP1 (residues 1–350) (from UniProt Q5VSL9 1-350) (domain or fragment)”: the binding result in assay [9] is “no binding”.

As for “N-terminal domain of STRIP1 (residues 1–420), recombinant (from UniProt Q5VSL9 1-420) (domain or fragment)”, the binding entry in [9] was “no binding”.

As for “STRIP1 (endogenous) (from UniProt Q5VSL9 1-837)”, the binding entry in assay [7] and in [10] was “binds” each time.
